Whole data set: some 33,000 sequences, median “E-score (-0.5 to 0.5)” near -0.032, cut for the highest 2% near 0.36. This is one part of the list.
target: T1, Sko1 (UniProt Q02100); test: PBM E-score (8-mer binding enrichment) (E-score (-0.5 to 0.5)); higher = stronger / more preferred TF binding; most listed sequences are background and not binding sites; conditions: protein concentration: 200 nM; construct: GST-full length
T1 sequence: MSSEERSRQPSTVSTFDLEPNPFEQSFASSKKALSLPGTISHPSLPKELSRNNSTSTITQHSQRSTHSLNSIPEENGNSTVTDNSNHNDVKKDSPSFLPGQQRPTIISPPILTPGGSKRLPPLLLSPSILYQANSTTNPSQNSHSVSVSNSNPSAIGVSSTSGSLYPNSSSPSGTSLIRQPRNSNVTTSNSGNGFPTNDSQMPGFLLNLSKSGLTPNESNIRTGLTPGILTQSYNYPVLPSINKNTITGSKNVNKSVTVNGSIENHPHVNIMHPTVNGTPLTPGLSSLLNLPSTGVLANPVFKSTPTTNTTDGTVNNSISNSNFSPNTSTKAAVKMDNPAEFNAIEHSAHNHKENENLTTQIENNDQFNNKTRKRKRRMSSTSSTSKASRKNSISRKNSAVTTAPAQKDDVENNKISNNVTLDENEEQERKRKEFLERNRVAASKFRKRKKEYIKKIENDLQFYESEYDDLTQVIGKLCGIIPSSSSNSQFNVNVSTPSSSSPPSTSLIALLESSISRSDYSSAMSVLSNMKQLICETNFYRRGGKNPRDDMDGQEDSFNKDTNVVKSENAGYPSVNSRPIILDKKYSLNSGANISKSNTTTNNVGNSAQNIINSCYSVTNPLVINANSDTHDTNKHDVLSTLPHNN
Summary of the method: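 PURExpress in vitro transcription/translation supplied GST-tagged yeast transcription factors, either full-length or DNA-binding domain. Applied at about 100-200 nM to universal all-10-mer Agilent arrays double-stranded by primer extension, the bound protein was detected with fluorescent anti-GST. E-scores, modified Wilcoxon-Mann-Whitney statistics, were given by the Universal PBM Analysis Suite to ungapped eight-base words pooled with their reverse complements after masliner normalisation.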

| Sequence | PBM E-score |
| --- | --- |
| ACAGCACT | -0.0725 |
| CGGGACAC | -0.225 |
| CAATGTTA | 0.00579 |
| GCTTTCTA | 0.124 |
| CGTCGTTA | 0.153 |
| AACTAATT | 0.182 |
| CACACAAG | 0.148 |
| GGCGACCA | -0.283 |
| GGCTGTTA | 0.0822 |
| GTAGAACA | -0.267 |
| AATAGCCT | -0.093 |
| ACAGCATG | 0.0123 |
| GCTTTAGA | -0.123 |
| AGGATATA | 0.16 |
| CCAGTGTA | -0.162 |
| CACACATC | -0.00525 |
| CAAGCAAA | -0.0707 |
| CCATCTGA | 0.0122 |
| TAAGCTTA | 0.199 |
| TTCAAAAA | 0.039 |
| TGGAGACA | -0.0854 |
| GTCGGACA | -0.0488 |

| Sequence | PBM E-score |
| --- | --- |
| TCAGTTAA | 0.101 |
| ACTGCATG | -0.00289 |
| AACGCCGC | -0.0243 |
| GTAGTAAC | -0.0447 |
| CCCTATAG | -0.169 |
| GATCCAAC | -0.168 |
| CGTTTACC | 0.107 |
| CTGAGCAG | -0.00663 |
| CTTACAAC | 0.101 |
| CGGGTGAC | 0.141 |
| GCGACGCC | -0.0621 |
| CAGTAGAA | 0.0237 |
| AACTTCCT | -0.0621 |
| CTATTCTA | 0.0865 |
| GCCGTCAC | 0.166 |
| AGAATATG | 0.14 |
| CACAAGGA | -0.121 |
| ACTGGGGG | -0.346 |
| AATTGCGG | -0.172 |
| ATAAAGCC | -0.108 |
| GTTCGAGA | 0.0475 |
| CGATAGGC | -0.218 |

| Sequence | PBM E-score |
| --- | --- |
| CTTCATCA | 0.116 |
| CGTGAAAA | 0.151 |
| CCCGGAGA | -0.155 |
| GCTGACGA | 0.352 |
| GCGTGCGA | -0.0187 |
| GGAGGAAA | -0.186 |
| GTGCTGCA | 0.00869 |
| ATCAGGGC | -0.139 |
| GATAACAC | 0.151 |
| CAAGAATG | -0.0283 |
| ACATACAC | 0.165 |
| AGGTATCC | -0.058 |
| AGGGACTA | -0.232 |
| ATGGTGAC | 0.0144 |
| AATTCCCG | 0.0364 |
| CAGAACTC | -0.0896 |
| AATGATGG | 0.189 |
| AGACAAAA | 0.0462 |
| ATGCTGGA | -0.0717 |
| CACCGCAA | 0.119 |
| GCTCCTCC | -0.138 |
| GCACTCGC | -0.0508 |

| Sequence | PBM E-score |
| --- | --- |
| GCAGCGGA | -0.11 |
| AAGTGACA | 0.311 |
| AATCTCAA | 0.0641 |
| CCACCTCA | -0.15 |
| ACTTAGCA | -0.0486 |
| GGTGTTAC | -0.0156 |
| AACACGAC | 0.133 |
| GAGCTTCC | -0.151 |
| CATCCATA | -0.0657 |
| CCTCCGCA | -0.374 |
| GGGTGTGA | -0.134 |
| ACAATCGG | 0.033 |
| GCATTGAC | 0.234 |
| CACAGGAA | -0.0894 |
| GCTAGCAC | -0.116 |
| TACCCATA | -0.006 |
| AGATAGCC | -0.299 |
| CCCGACGC | -0.148 |
| CGCAGACC | -0.176 |
| ATCTTCTG | 0.0454 |

Reference: the supplement of paper PMC3334620
